Patent US5556854A, “Pyridopyrimidinediones, processes for their preparation and their use as drugs” (Hoechst Aktiengesellschaft, priority 1993, dated 1996)
Where a name gives a salt, the structure may show the parent alone. The name of at least one read-out is uncertain.

System: laser-induced thrombosis (arterioles and venoles of the mesenterium)
Assay: Inhibition of laser-induced thrombosis (antithrombotic activity)
Assay type: in vivo, female Sprague-Dawley rats
[1] = 10 po, 1 hour before start of experiment
[2] = 1 iv, 10 min before start of experiment
[3] = 3 iv, 10 min before start of experiment
[4] = 10 iv, 10 min before start of experiment

Compound	Percentage inhibition of thrombosis [1]	Percentage inhibition of thrombosis [3]	further results
Cl.Cn1c(=O)[nH]c2c(c1=O)CNCC2 [Compound 1, 3-Methyl-5,6,7,8-tetrahydro-1H-pyrido[4,3-d]pyrimidine-2,4-dione hydrochloride]	+33%	–	–
Cl.Cn1c(=O)[nH]c2c(c1=O)CN(Cc1ccccc1)CC2 [Compound 2, 6-Benzyl-3-methyl-5,6,7,8-tetrahydro-1H-pyrido[4,3-d]-pyrimidine-2,4-dione hydrochloride]	+41%	–	Percentage inhibition of thrombosis [2]: +20%
Cl.Cn1c2c(c(=O)n(C)c1=O)CN(Cc1ccccc1)CC2 [Compound 3, 6-Benzyl-1,3-dimethyl-5,6,7,8-tetrahydro-1H-pyrido[4,3-d]pyrimidine-2,4-dione hydrochloride]	+33%	+26%	–
Cl.O=c1[nH]c2c(c(=O)n1Cc1ccccc1)CN(Cc1ccccc1)CC2 [Compound 4, 3,6-Dibenzyl-5,6,7,8-tetrahydro-1H-pyrido[4,3-d]pyrimidine-2,4-dione hydrochloride]	+49%	–	–
CCOC(=O)C(c1ccccc1)N1CCc2[nH]c(=O)n(C)c(=O)c2C1.Cl (stereo not shown) [Compound 5, Ethyl (3-methyl-2,4-dioxo-2,3,4,5,7,8-hexahydro-1H-pyrido[4,3-d]pyrimidin-6-yl)phenylacetate hydrochloride]	+39%	+39%	Percentage inhibition of thrombosis (1 ip): -7%
Cl.Cn1c(=O)[nH]c2c(c1=O)CN(C(C(=O)O)c1ccccc1)CC2 (stereo not shown) [Compound 6, (3-Methyl-2,4-dioxo-2,3,4,5,7,8-hexahydro-1H-pyrido[4,3-d]pyrimidin-6-yl)phenylacetic acid hydrochloride]	-4%	+18%	Percentage inhibition of thrombosis (1 ip): +35%
CCOC(=O)C(c1ccccc1Cl)N1CCc2[nH]c(=O)n(Cc3ccccc3)c(=O)c2C1.Cl (stereo not shown) [Compound 7, Ethyl (3-benzyl-2,4-dioxo-2,3,4,5,7,8-hexahydro-1H-pyrido[4,3-d]pyrimidin-6-yl)(2-chlorophenyl)acetate hydrochloride]	+23%	–	–
Cn1c(=O)[nH]c2c(c1=O)CN(CCO)CC2 [Compound 8, 6-(2-Hydroxyethyl)-3-methyl-5,6,7,8-tetrahydro-1H-pyrido[4,3-d]pyrimidine-2,4-dione]	+36%	+40%	–
Cl.Cn1c(=O)[nH]c2c(c1=O)CN(C(CO)c1ccccc1)CC2 (stereo not shown) [Compound 9, 6-(2-Hydroxy-1-phenylethyl)-3-methyl-5,6,7,8-tetrahydro-1H-pyrido[4,3-d]pyrimidine-2,4-dione hydrochloride]	+23%	–	–
Cn1c(=O)[nH]c2c(c1=O)CN(CC[S+](C)[O-])CC2 (stereo not shown) [Compound 10, 3-Methyl-6-(2-methylsulfinylethyl)-5,6,7,8-tetrahydro-1H-pyrido[4,3-d]pyrimidine-2,4-dione]	+15%	+29%	Percentage inhibition of thrombosis [2]: 0%; Percentage inhibition of thrombosis [4]: +11%
Cn1c2c(c(=O)[nH]c1=O)CN(Cc1ccccc1)CC2 [Compound 11, 6-Benzyl-l-methyl-5,6,7,8-tetrahydro-3H-pyrido[4,3-d]-pyrimidine-2,4-dione hydrochloride]	–	+16%	–
Cn1c(=O)[nH]c2c(c1=O)CN(CCCCO)CC2 [Compound 12, 6-(4-Hydroxybutyl)-3-methyl-5,6,7,8-tetrahydro-1H-pyrido[4,3-d]pyrimidine-2,4-dione]	+23%	+15%	Percentage inhibition of thrombosis [4]: +32%
Cl.Cn1c(=O)[nH]c2c(c1=O)CN(CCCCCC(=O)O)CC2 [Compound 13, 6-(3-Methyl-2,4-dioxo-2,3,4,5,7,8-hexahydro-1H-pyrido[4,3-d]pyrimidin-6-yl)hexanoic acid hydrochloride]	+18%	–	–
CN1CCc2c(c(=O)n(C)c(=O)n2CCO)C1 [Compound 14, 1-(2-Hydroxyethyl)-3,6-dimethyl-5,6,7,8-tetrahydro-1H-pyrido[4,3-d]pyrimidine-2,4-dione]	+29%	+20%	–
CN1CCc2[nH]c(=O)n(Cc3ccccc3)c(=O)c2C1 [Compound 15, 3-Benzyl-6.-methyl-5,6,7,8-tetrahydro-1H-pyrido[4,3-d]-pyrimidine-2,4-dionehydrochloride]	+32%	+16%	–
CCn1c2c(c(=O)n(C)c1=O)CN(Cc1ccccc1Cl)CC2 [Compound 16]	+43%	+36%	Percentage inhibition of thrombosis [2]: +21%; Percentage inhibition of thrombosis [4]: +56%
Cn1c(=O)[nH]c2c(c1=O)CN(Cc1ccccc1C#N)CC2 [Compound 17]	+43%	–	–
Cn1c(=O)[nH]c2c(c1=O)CN(Cc1ccc(F)cc1)CC2 [Compound 18]	+23%	–	–
CCOC(=O)C(c1ccccc1Cl)N1CCc2[nH]c(=O)n(C)c(=O)c2C1 (stereo not shown) [Compound 19]	+46%	+31%	Percentage inhibition of thrombosis [2]: +22%; Percentage inhibition of thrombosis (30 ip): +35%
Cn1c(=O)[nH]c2c(c1=O)CN(C(C(=O)O)c1ccccc1Cl)CC2 (stereo not shown) [Compound 20]	+13%	+4%	Percentage inhibition of thrombosis (30 ip): +51%
O=C(O)C(c1ccccc1Cl)N1CCc2[nH]c(=O)n(Cc3ccccc3)c(=O)c2C1 (stereo not shown) [Compound 21]	+27%	–	–
COC(=O)C(c1ccccc1Cl)N1CCc2[nH]c(=O)n(C)c(=O)c2C1 (stereo not shown) [Compound 22]	+31%	–	–

Compound	Percentage inhibition of thrombosis [1]	Percentage inhibition of thrombosis [3]	further results
O=c1[nH]c2c(c(=O)[nH]1)CN(Cc1ccccc1)CC2 [Compound 23]	+36%	–	–
CCOC(=O)C(C(=O)OCC)N1CCc2[nH]c(=O)n(C)c(=O)c2C1 [Compound 24]	+16%	–	–
CC(C)CN1CCc2[nH]c(=O)n(C)c(=O)c2C1 [Compound 25]	+16%	–	–
C=C(C)CN1CCc2[nH]c(=O)n(C)c(=O)c2C1 [Compound 26]	+34%	+38%	Percentage inhibition of thrombosis [2]: +18%; Percentage inhibition of thrombosis [4]: +31%
Cn1c(=O)[nH]c2c(c1=O)CN(CCN1CCOCC1)CC2 [Compound 27]	+16%	–	–
CC(c1ccccc1)N1CCc2[nH]c(=O)n(C)c(=O)c2C1 (stereo not shown) [Compound 28]	+27%	+25%	–
C=CCN1CCc2[nH]c(=O)n(C)c(=O)c2C1 [Compound 29]	+27%	+29%	–
Cn1c(=O)[nH]c2c(c1=O)CN(Cc1cccs1)CC2 [Compound 30]	+12%	–	–
Cn1c(=O)[nH]c2c(c1=O)CN(Cc1nccn1Cc1ccccc1)CC2 [Compound 31]	+20%	–	–
COC(=O)/C=C/c1ccc(CN2CCc3[nH]c(=O)n(C)c(=O)c3C2)cc1 [Compound 33]	+17%	+3%	Percentage inhibition of thrombosis [2]: +10%
Cn1c(=O)[nH]c2c(c1=O)CN(Cc1ccccn1)CC2 [Compound 34]	+17%	+2%	–
C=C(C)CCN1CCc2[nH]c(=O)n(C)c(=O)c2C1 [Compound 35]	–	+32%	–
Cn1c(=O)[nH]c2c(c1=O)CN(CC1CCCCC1)CC2 [Compound 36]	+16%	–	–
Cn1c(=O)[nH]c2c(c1=O)CN(CCCO)CC2 [Compound 37]	+33%	+13%	Percentage inhibition of thrombosis [2]: +3%; Percentage inhibition of thrombosis [4]: +31%
COC(=O)/C=C/CN1CCc2[nH]c(=O)n(C)c(=O)c2C1 [Compound 38]	+23%	+4%	–
Cn1c(=O)[nH]c2c(c1=O)CN(CCCCCO)CC2 [Compound 39]	+30%	+40%	Percentage inhibition of thrombosis [2]: +31%
Cn1c(=O)[nH]c2c(c1=O)CN(CCCCCC(=O)OC(C)(C)C)CC2 [Compound 40]	+12%	–	–
Cn1c(=O)[nH]c2c(c1=O)CN(CCCCCCC(=O)OC(C)(C)C)CC2 [Compound 41]	+22%	–	–
COc1ccc(CN2CCc3[nH]c(=O)n(C)c(=O)c3C2)cc1 [Compound 42]	–	+14%	–
CCCCn1c(=O)[nH]c2c(c1=O)CN(Cc1ccccc1)CC2 [Compound 43]	+6%	+8%	–
Cn1c(=O)[nH]c2c(c1=O)CN(Cc1ccccc1Cl)CC2 [Compound 44]	+27%	–	–
CCn1c(=O)[nH]c2c(c1=O)CN(Cc1ccccc1)CC2 [Compound 45]	+11%	+20%	–
